Hit rate of the full screen: of about 310,000 compounds, about 2,200 (0.71%) showed an effect of 50% or more. Effects have a minus sign here. This is one part of the list.
Biological target: human ether-à-go-go-related gene (hERG) potassium channel (human, UniProt Q12809)
Test: primary screen, population patch clamp on CHO cells stably expressing hERG

human ether-à-go-go-related gene (hERG) potassium channel, sequence (Q12809 whole entry, looked up): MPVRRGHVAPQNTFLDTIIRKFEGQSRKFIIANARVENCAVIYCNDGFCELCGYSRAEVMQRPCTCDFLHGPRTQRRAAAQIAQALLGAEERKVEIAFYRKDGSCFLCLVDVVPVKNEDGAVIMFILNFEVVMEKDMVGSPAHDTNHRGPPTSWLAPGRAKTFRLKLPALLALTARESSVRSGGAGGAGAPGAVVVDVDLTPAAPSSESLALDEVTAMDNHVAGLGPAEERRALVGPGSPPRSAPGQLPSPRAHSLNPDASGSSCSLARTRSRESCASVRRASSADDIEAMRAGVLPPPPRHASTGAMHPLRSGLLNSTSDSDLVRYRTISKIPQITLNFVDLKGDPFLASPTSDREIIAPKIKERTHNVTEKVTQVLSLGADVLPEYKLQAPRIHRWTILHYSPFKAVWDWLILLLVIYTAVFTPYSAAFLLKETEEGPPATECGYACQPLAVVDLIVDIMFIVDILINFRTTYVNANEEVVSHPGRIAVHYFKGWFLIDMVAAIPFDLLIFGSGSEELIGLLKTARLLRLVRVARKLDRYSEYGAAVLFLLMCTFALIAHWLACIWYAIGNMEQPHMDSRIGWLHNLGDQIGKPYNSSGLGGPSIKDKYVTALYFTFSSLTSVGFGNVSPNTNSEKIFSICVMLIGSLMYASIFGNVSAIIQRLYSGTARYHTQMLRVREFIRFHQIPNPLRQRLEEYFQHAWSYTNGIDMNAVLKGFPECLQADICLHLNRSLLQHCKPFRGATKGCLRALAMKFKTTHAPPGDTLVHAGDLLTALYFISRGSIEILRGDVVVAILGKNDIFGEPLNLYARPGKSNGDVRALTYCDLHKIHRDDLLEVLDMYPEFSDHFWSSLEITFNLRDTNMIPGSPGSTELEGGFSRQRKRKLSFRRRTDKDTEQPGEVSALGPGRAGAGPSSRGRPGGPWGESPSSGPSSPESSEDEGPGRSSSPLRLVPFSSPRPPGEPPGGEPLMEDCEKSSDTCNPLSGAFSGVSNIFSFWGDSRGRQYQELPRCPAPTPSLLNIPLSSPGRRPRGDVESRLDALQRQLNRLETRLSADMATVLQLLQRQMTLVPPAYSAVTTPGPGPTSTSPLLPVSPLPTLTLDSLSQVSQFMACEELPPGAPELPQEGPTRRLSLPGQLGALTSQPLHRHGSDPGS

SMILES	hERG current change (%, negative = inhibition) at 1uM [%]
CC(C)(C)NC(=O)Cn1ccc(=N)c2ccccc21.Cl	6.14
O=C(O)C1C2C=CC(C2)C1C(=O)NCc1cccc(Cl)c1 (stereo not shown)	18.9
CCN(CC1COc2ccccc2O1)C(=O)CN1C(=O)NC(C)(c2ccccc2)C1=O (stereo not shown)	2.98
O=C(CCCCCNc1nc(=S)[nH]c2ccccc12)NCCc1c[nH]c2ccccc12	7.38
Cn1cnnc1SCC(=O)c1ccco1	12.5
COc1ccc(CNC(=O)CNS(=O)(=O)c2ccc(Cl)cc2)cc1	-2.08
Cc1ccc(-c2ccc(CCC(=O)O)n2NC(=O)c2ccco2)cc1	7.27
N#CC1(Cc2ccc([N+](=O)[O-])cc2)c2ccccc2C=CN1C(=O)c1ccccc1 (stereo not shown)	1.12
COc1ccc(OC)c(C(c2nnnn2Cc2ccccc2)N2CCC(C(N)=O)CC2)c1 (stereo not shown)	-2.21
O=C(NCCSc1ccc(Cl)cc1)c1ccco1	3.48
CC(C)COC(=O)CCNc1n[nH]c(=O)[nH]c1=O	3.64
Clc1ccccc1OCCn1cnc2ccccc21	-1.39
O=C(COc1cccc2c1CCN(Cc1ccc(Br)cc1)C2=O)NCc1ccco1	-17.5
c1cn(C23CC4CC(CC(C4)C2)C3)cn1	0.412
Cc1ccc(C(=O)NC2(C(F)(F)F)N=C3SCCN3C2=O)cc1 (stereo not shown)	15.3
O=C(Cc1ccccc1)Nc1ccc(N2CCOCC2)cc1	15.1
Cc1ccc(-n2c(SCC3CNC(=O)O3)nnc2-c2ccccc2)cc1C (stereo not shown)	0.305
COc1ccccc1OC(=O)c1cc2ccccc2oc1=O	8.47
N#C/C(=C\c1cccs1)c1nc2ccccc2[nH]1	10.7
c1ccc(OCCCc2nc(-c3ccncc3)no2)cc1	3.18
CCn1c(SCC(=O)N/N=C/C=C\c2ccccc2[N+](=O)[O-])nc2ccccc21	-4.85
O=C(N/N=C/c1cccnc1)c1ccc(NC(=O)c2ccc(Cl)cc2)cc1	9.62
CC(=O)c1ccc(NC(=O)C(NC(=O)c2ccccc2)=C(C)C)cc1	15.3

SMILES	hERG current change (%, negative = inhibition) at 1uM [%]
COc1ccc(C(C(=O)NC(C)(C)C)N(C(=O)CCC(=O)Nc2cc(C)on2)c2ccc3c(c2)OCCO3)cc1 (stereo not shown)	15.1
CCCOc1ccc(N2CC(C(=O)NC3=NCCS3)CC2=O)cc1 (stereo not shown)	-26
C/C(CC(=O)Nc1ccc(Cl)cc1Cl)=N\NC(N)=S	-10.2
Cn1cc(S(=O)(=O)c2ccccc2)n(C)c1=O	13.4
CCOc1cccc(CN2CCC(CCC(=O)NC3CC3)CC2)c1O	-47.1
COC(=O)C1=C(C)NC(=O)CC1c1cccc(OC)c1OC (stereo not shown)	-4.05
COc1cccc(-c2ncc3ccccc3c2COC(=O)c2ccc(Br)cc2)c1	15.5
O=C(NCc1ccc(Cl)cc1)C1CCN(c2cnccn2)CC1	-12.3
OCCOCCOc1ccc(-c2nn[nH]n2)cc1	11.1
COC(=O)C1=C(C)N(CCCC(=O)O)C(=O)NC1c1ccc(Cl)cc1 (stereo not shown)	8.03
O=C(Nc1ccc([N+](=O)[O-])cc1)c1cccc(S(=O)(=O)Nc2ccccn2)c1	6.15
COc1ccc(C2c3[nH]c4ccccc4c3C[C@H]3C(=O)N(C4CCN(Cc5ccccc5)CC4)CC(=O)N23)cc1OC (stereo partly shown)	-9.82
COc1ccc(/C=C/c2nc(S(=O)(=O)c3ccccc3)c(N(C)C)o2)cc1	7.99
COc1cc(C=O)ccc1OCC(=O)NC(C)(C)C	16.6
Cc1cc(C)n(C(=O)/C(C#N)=N\Nc2ccccc2[N+](=O)[O-])n1	7.38
N#Cc1c2ccc(OCC(N)=O)cc2n2ccccc12	13.6
Nc1[nH][nH]c(=O)c1N=Nc1ccc2c(c1)OCO2	0.524
Cc1nc(NC(=O)c2c(-c3ccccc3Cl)noc2C)sc1C	5.14
O=C(c1ccccc1)c1c[nH]c(C(=O)C(Cl)(Cl)Cl)c1	16
CC1CC1C(=O)OCC(=O)Nc1ccccc1Oc1ccccc1 (stereo not shown)	19
COCC(=O)Nc1cc([N+](=O)[O-])ccc1OC	11.6
Cc1ccc(CCN2CC(C(=O)NCCCN3CCCCCC3)CC2=O)cc1 (stereo not shown)	13.6
COc1ccc(C(=O)O/N=C(/C(N)=O)P(=O)(OC(C)C)OC(C)C)cc1	8.1

SMILES	hERG current change (%, negative = inhibition) at 1uM [%]
Cc1cccc2cc(C(c3nnnn3Cc3ccccc3)N3CCCc4ccccc43)c(=O)[nH]c12 (stereo not shown)	7.15
COc1ccc(OC)c(S(=O)(=O)N2CCN(CC(O)COc3ccccc3)CC2)c1 (stereo not shown)	-13.6
NC(=O)c1ccc(S(=O)(=O)N2CCSCC2)cc1	12.2
COc1ccc(NC(=O)c2ccccc2CC[N+](=O)[O-])cc1	16.4
C=CCn1c(O)c(C(C)=NCCc2ccccc2)c(=O)[nH]c1=O	1.74
CC1(C)CC(=O)C=C(NCCN2CCNCC2)C1	-4.2
CCCCC(=O)Nc1c(-c2ccc(OC)c(OC)c2)c(=O)c2ccccc2n1C	10.7
Cc1ccc(CCNC(=O)CC(C)CC2=NS(=O)(=O)c3ccccc3N2)cc1 (stereo not shown)	12.8
Cc1cc(C)n(S(=O)(=O)c2ccc(Cl)c(Cl)c2Cl)n1	5.71
CCc1cccc(C)c1NC(=O)Cc1ccsc1	6.6
CC(C)C(=O)Nc1ccc(NC(=O)c2cccs2)cn1	2.04
COc1cc(CNn2nnnc2N)ccc1OCc1c(Cl)cccc1Cl	-7.02
CCCCCCCCCCS(=O)(=O)N/N=C/c1ccccc1OC	13.4
COc1ccc(Cl)cc1NC(=O)CN(C)C(=O)CCCNC(=O)c1ccc(Cl)cc1	-5.75
CCOC(=O)c1c(C)[nH]c(C(=O)COC(=O)c2ccccc2NC(=O)c2ccco2)c1C	14.8
C=CCn1c(=O)c2ccccc2n2c(SCC(N)=O)nnc12	6.39
CSc1cccc(NC(=O)Nc2ccccc2C(N)=O)c1	6.25
C=CCN1C(=O)C(Cc2ccc(OCC)cc2)SC1=Nc1ccc(C(=O)O)cc1 (stereo not shown)	0.342
Cc1cccn2c(NC(=O)c3ccccc3F)c(-c3ccccc3)nc12	5
CN1C(=O)c2oc3ccccc3c(=O)c2C1c1ccncc1 (stereo not shown)	5.81
O=C(Nc1ccc(NC(=O)c2ccco2)nc1)c1ccccn1	2.41
C=CCN(c1ccccc1)S(=O)(=O)c1ccc(Cl)c(C(=O)OCC(=O)NCCCN2CCCC2=O)c1	19.9
Cc1cc(-c2nnc(SCC(=O)Nc3ccc(F)cc3F)n2N)n[nH]1	12.9

SMILES	hERG current change (%, negative = inhibition) at 1uM [%]
COc1ccc(C)cc1NC(=O)COC(=O)C1CC1	6.74
O=C(CNC(=O)c1sc2ccccc2c1Cl)OCc1ccccc1	4.08
Cc1cc(C)cc(N2C(=O)CSC2c2cccs2)c1 (stereo not shown)	8.82
O=C(c1ccc(Oc2ccc([N+](=O)[O-])cc2)cc1)N1CCCCCC1	4.77
Cc1cc(/C(N)=N/OC(=O)c2ccc(Cl)cc2)no1	9.68
CC1CN(C(=O)CSc2nnc(-c3ccccc3)o2)CC(C)O1 (stereo not shown)	11.2
Cc1c(/C=C(\C#N)C(=O)NCc2ccccc2)cc(C#N)n1C	16.5
O=C(Nc1ccc(S(=O)(=O)NCc2ccccc2)cc1)Nc1ccc2c(c1)OCO2	6.32
COC(=O)N[C@H](CC(C)=O)c1ccccc1	13.6
O=C1CCCC2=C1C(c1ccccc1)C1C(=O)c3ccccc3C1=N2 (stereo not shown)	13.1
Cc1ccc(-c2cc(C(F)F)n3ncc(C(=O)NN4CCCCC4)c3n2)cc1	14.8
COc1ccc(C(=O)NC(Cc2c[nH]c3ccccc23)C(=O)O)cc1 (stereo not shown)	11.5
Oc1ccc(-c2nncn2-c2ccccc2)cc1	16.2
CCOC(=O)C1CCN(c2c(NCc3ccc(C(=O)NCCC(C)C)cc3)c(=O)c2=O)CC1	4.68
CCN(CC)S(=O)(=O)c1ccc(/C=C/C(=O)OCC#N)cc1	-5.89
Cc1[nH]n(-c2ccccc2)c(=O)c1/C=N/N1C(=O)c2ccc3c4c(ccc(c24)C1=O)CC3	2.84
COC(=O)c1ccc(-c2cc(C(=O)O)c3cc4c(cc3n2)OCCO4)cc1	0.418
COc1ccccc1N1CCN(S(=O)(=O)c2c(C)[nH]c(C)c2C(=O)N2CCCCC2)CC1	15
CCC(C)NC(=O)CSc1nc2ccccc2c(=O)n1Cc1ccc(OC)cc1 (stereo not shown)	-2.46
CCCCCn1c(CNC(=O)CC)nc2ccccc21	0.352
COc1cc2cc(C(=O)Nc3ccccc3)c(N)nc2cc1OC	0.219
CCN(c1ccc(NC(=O)COC(=O)CCc2nc3ccccc3n2-c2ccccc2)cc1)C(C)C	1.68

From PMC4336329 (PLoS ONE, 2015)
